Among the data in patent US11999737B2, “Kinase inhibitors and related methods of use” (Duke University, priority 2014, dated 2024) are activity values, retold here.

One assay deals with DAPK1 (Homo sapiens, UniProt P53355). In words: 33P-ATP filter-binding kinase assay. The following applies: read-out: % Activity (10 μM HS38).
The target of a further assay is smMLCK (Homo sapiens, UniProt Q15746). In words: 33P-ATP filter-binding kinase assay. As to conditions: read-out: % Activity (10 μM HS38).
UniProt Q15746, sequence (Q15746 whole entry): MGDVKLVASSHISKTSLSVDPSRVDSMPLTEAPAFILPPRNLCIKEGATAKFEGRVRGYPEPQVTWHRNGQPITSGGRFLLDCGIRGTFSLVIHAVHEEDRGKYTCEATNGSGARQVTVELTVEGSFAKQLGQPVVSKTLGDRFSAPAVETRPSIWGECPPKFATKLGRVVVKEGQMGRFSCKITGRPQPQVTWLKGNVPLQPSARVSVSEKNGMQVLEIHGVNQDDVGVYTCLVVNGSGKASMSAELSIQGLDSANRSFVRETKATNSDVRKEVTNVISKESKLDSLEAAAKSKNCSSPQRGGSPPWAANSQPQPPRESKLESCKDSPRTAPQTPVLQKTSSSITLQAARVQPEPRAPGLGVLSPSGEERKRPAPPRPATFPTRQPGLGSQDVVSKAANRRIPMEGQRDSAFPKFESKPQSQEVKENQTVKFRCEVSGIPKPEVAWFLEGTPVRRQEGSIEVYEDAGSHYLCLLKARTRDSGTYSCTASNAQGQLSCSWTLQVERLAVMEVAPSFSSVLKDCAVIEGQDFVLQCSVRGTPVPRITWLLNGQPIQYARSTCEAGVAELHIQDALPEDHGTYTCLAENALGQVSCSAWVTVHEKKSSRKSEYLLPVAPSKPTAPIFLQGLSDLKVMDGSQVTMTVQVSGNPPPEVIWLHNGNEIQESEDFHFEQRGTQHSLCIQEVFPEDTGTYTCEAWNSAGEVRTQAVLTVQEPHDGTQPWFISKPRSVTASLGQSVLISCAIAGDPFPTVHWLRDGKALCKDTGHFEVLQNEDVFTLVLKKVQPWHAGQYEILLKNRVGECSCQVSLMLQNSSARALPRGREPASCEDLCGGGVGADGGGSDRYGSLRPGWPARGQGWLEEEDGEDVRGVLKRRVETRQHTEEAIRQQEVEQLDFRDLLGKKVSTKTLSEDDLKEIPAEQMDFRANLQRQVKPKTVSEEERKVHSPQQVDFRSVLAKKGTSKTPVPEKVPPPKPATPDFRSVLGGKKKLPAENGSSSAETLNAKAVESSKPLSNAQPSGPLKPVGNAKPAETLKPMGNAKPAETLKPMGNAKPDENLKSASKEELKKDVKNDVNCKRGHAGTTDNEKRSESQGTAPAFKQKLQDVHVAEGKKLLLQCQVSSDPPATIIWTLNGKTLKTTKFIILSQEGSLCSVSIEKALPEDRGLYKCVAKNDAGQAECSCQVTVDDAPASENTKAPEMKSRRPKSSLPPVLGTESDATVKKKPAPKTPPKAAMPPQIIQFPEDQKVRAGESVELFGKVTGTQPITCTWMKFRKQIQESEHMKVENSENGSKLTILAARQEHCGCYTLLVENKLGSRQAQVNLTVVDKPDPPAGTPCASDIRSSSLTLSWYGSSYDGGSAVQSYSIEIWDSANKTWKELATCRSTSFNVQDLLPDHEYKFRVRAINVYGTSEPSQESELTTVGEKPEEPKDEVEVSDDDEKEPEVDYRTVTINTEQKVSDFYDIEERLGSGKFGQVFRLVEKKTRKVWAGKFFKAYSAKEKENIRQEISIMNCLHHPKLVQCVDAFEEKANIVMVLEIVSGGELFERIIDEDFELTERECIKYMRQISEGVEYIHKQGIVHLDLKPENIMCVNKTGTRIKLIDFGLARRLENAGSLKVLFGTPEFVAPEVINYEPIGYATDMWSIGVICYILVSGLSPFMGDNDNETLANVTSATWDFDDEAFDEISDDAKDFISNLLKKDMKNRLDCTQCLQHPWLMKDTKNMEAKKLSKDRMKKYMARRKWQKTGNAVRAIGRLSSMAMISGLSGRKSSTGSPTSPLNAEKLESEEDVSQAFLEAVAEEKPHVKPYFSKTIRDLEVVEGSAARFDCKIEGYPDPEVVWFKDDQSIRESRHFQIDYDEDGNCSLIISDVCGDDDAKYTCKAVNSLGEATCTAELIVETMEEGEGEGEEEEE

UniProt P53355, sequence (P53355 whole entry): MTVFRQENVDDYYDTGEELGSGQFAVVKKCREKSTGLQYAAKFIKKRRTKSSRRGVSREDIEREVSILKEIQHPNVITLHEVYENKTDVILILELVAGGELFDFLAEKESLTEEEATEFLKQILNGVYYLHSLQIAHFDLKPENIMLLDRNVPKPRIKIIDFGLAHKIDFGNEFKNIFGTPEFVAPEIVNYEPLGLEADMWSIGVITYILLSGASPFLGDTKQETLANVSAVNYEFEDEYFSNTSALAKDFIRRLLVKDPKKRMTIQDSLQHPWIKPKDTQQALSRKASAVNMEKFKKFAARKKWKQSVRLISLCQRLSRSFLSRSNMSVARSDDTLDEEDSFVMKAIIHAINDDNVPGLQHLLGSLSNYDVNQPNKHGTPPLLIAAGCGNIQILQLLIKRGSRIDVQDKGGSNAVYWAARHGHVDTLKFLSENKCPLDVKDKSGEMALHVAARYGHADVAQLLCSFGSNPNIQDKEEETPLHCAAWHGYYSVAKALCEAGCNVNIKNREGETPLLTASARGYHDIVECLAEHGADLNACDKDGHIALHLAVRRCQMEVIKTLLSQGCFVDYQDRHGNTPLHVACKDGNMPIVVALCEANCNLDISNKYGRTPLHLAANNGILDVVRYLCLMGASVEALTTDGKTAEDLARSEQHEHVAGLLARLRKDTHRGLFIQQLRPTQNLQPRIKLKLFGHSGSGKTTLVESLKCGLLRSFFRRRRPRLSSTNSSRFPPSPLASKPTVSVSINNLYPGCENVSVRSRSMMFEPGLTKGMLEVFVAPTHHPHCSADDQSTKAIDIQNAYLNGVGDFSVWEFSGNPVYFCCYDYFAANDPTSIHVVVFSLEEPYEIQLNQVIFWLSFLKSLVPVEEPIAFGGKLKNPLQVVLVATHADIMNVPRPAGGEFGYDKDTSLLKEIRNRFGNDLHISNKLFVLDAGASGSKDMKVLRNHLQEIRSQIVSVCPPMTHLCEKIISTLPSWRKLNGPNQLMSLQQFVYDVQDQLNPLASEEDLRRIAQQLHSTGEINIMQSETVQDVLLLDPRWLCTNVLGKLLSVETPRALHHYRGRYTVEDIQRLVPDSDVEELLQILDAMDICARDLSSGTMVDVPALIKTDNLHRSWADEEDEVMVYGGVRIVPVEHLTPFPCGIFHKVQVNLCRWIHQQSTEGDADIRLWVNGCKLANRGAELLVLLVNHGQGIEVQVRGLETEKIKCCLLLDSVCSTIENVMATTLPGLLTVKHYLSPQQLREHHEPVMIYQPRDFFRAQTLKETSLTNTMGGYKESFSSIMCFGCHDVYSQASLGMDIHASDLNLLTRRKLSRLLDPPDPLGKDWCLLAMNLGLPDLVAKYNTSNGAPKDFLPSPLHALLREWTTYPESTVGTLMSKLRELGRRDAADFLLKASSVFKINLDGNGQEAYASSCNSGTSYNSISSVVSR

As to `CC(Sc1nc2c(cnn2-c2cccc(Cl)c2)c(=O)[nH]1)C(N)=O` (centres unmarked) [HS38], the activity at 10 µM was 11% on DAPK1 and 71% at smMLCK.
